Several values for one entry are separate records, joined by “and”; a condition that tells them apart may be missing. Equal values may be shown once. Inconclusive means that the source gave no clear call. Such entries were picked first, then a sample of the others. For part of these data: A potency beside an inconclusive call is a rough fit, not a confirmed value. Activity calls are given as the source filed them. Calls follow the shape of the dose curve; as a rule, active = well fitted curve in the direction sought with a large enough effect; inconclusive = small, poorly fitted or top-dose-only effect, or another doubt; inactive = no such curve, though single readings can be large; an effect the other way counts as inactive or inconclusive.
Legend:
[1] = Viability qHTS for spleen associated tyrosine kinase inhibitor (SYKi) drug resistant MV4-11 cells (AID 1963824); also: nearly all actives have a fitted effect of over 35% in size
In short: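 CellTiter-Glo luminescence, read 10 min after reagent addition, reports viability after a 72 hr compound exposure. Cells are an MV4-11 line made resistant to SYK inhibition, seeded at 500 per well onto compound-containing plates.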

[2] = Quantitative highthroughput screen to assess conditional lethalithy of NOMO1 cells grown in Human Plasma-Like Medium with dialyzed fetal bovine serum (HPLM+ds) (AID 1963878); details: NOMO1 AML cells in HPLM+ds, CellTiter-Glo viability, 48 h; viability: at 45.8 µM (top of the series); also: nearly all actives have a fitted effect of over 35% in size;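 as to Viability: 100% = DMSO wells and 0% = empty wells on each plate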
In short: (§1)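 Each medium arm—HPLM with 10% dialyzed FBS, or RPMI1640 with 5 mM glucose and 10% untreated or dialyzed FBS—was screened against an 11-point, 3-fold compound titration for 48 h at 37 °C, with CellTiter-Glo luminescence as endpoint.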

[3] = Quantitative highthroughput screen to assess conditional lethalithy of P12 Ichikawa cells grown in Human Plasma-Like Medium with dialyzed fetal bovine serum (HPLM+ds) (AID 1963879); details: Potency: viability; also: nearly all actives have a fitted effect of over 35% in size
In short: as §1

[4] = Quantitative highthroughput screen to assess conditional lethalithy of P12 Ichikawa cells grown in RPMI1640 with dialyzed fetal bovine serum (RPMI+ds) (AID 1963880); details: Potency: P12-Ichikawa viability; also: nearly all actives have a fitted effect of over 35% in size;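 as to Viability: 100% = DMSO wells and 0% = empty wells on each plate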
In short: as §1

[5] = Quantitative highthroughput screen to assess conditional lethalithy of P12 Ichikawa cells grown in RPMI1640 with untreated serum (RPMI+s) (AID 1963881); details: Potency: viability; also: nearly all actives have a fitted effect of over 35% in size
In short: as §1

[6] = Quantitative highthroughput screen to assess conditional lethalithy of SEM cells grown in Human Plasma-Like Medium with dialyzed fetal bovine serum (HPLM+ds) (AID 1963882); also: nearly all actives have a fitted effect of over 35% in size
In short: as §1

[7] = Quantitative highthroughput screen to assess conditional lethalithy of SEM cells grown in RPMI1640 with unreated serum (RPMI+s) (AID 1963883); details: SEM B-ALL cells, CellTiter-Glo viability, 48 h; viability: at 45.8 µM (top of the series); also: nearly all actives have a fitted effect of over 35% in size
In short: as §1

[8] = Quantitative highthroughput screen to assess conditional lethalithy of SEM cells grown in RPMI1640 with dialyzed fetal bovine serum (RPMI+ds) (AID 1963884); details: SEM B-ALL cells, RPMI+dialyzed FBS, CellTiter-Glo viability, 48 h; viability: at 45.8 µM (top of the series); also: nearly all actives have a fitted effect of over 35% in size;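 as to Viability: 100% = DMSO control wells and 0% = empty wells without cells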
In short: as §1

[9] = Quantitative highthroughput screen to assess conditional lethalithy of NOMO1 cells grown in RPMI1640 with dialyzed fetal bovine serum (RPMI+ds) (AID 1963877); also: nearly all actives have a fitted effect of over 30% in size;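 as to Viability: 100% = DMSO control wells and 0% = empty wells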
In short: as §1

[10] = Cellular viability qHTS for adrenocortical cancer (ACC) cell line SW-13 (AID 1963989); details: SW-13 ACC cells viability, CellTiter-Glo, 48 h; activity (max response): hits give low values; also: nearly all actives have a fitted effect of over 65% in size;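 as to activity (max response): cells grown in serum-free medium with ITS supplement; % is scaled to controls: 0 for no effect and ±100 for the full control effect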
In short: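 Here, serum-free SW-13 cultures were dosed up to 46 uM. Following 48 h, ATP-dependent luminescence (CellTiter-Glo) reported viable cells, and logistic modeling produced IC50 values.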

[11] = Cellular viability qHTS for adrenocortical cancer (ACC) cell line NCI-H295R (AID 1963990); details: CellTiter-Glo ATP luminescence, 48 h; activity change, negative = viability loss: at 46.1 µM (top of the series); also: nearly all actives have a fitted effect of over 60% in size
In short: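 Viability of NCI-H295R after 48 h of treatment (final up to 46 uM) measured through cellular ATP luminescence.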

[12] = Quantitative highthroughput screen to assess conditional lethalithy of NOMO1 cells grown in RPMI1640 with untreated serum (RPMI+s) (AID 1963876); details: NOMO1 AML cells in RPMI+serum, CellTiter-Glo viability, 48 h; viability: at 45.8 µM (top of the series); also: nearly all actives have a fitted effect of over 35% in size;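 as to Viability: 100% = DMSO wells and 0% = empty wells without cells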
In short: as §1
Potency is read from the fitted curve at half-maximal effect; tags tell the direction and shape of the fitted curve.

**Q.** For `O=c1c2ccccc2nc2n1CCc1c-2[nH]c2ccccc12`, which Potency [1] is on record?
**A.** Its Potency is inconclusive: 3.66 µM [cytotoxic, partial curve].

**Q.** What about the Potency [2] of the same compound?
**A.** Its Potency is “inactive”.

**Q.** What about the Potency [3] of the same compound?
**A.** The Potency was inconclusive: 16.6 µM [cytotoxic, partial curve, poor fit].

**Q.** And the Potency [4]?
**A.** Its Potency is inconclusive: 14.8 µM [cytotoxic, partial curve].

**Q.** What about the Potency [5] of the same compound?
**A.** Its Potency is active: 13.2 µM.

**Q.** And the Potency [6]?
**A.** Its Potency is inconclusive: 14.8 µM [cytotoxic, partial curve, poor fit].

**Q.** And the Potency [7]?
**A.** Its Potency is inconclusive: 13.2 µM [cytotoxic, partial curve, poor fit].

**Q.** And the Potency [8]?
**A.** The Potency was inconclusive: 16.6 µM [cytotoxic, partial curve].

**Q.** Which results are given for `Cc1cc(C(=O)N2CCN(c3cccc(Cl)c3)CC2)n(-c2ccccc2)n1`?
**A.** Potency [1]: active: 1.46 µM; Potency [9]: inconclusive: 3.32 µM [cytotoxic, full curve]; Potency [2]: inconclusive: 1.66 µM [cytotoxic, full curve]; Potency [4]: active: 2.96 µM; Potency [6]: inconclusive: 1.48 µM [cytotoxic, full curve]; Potency [7]: active: 2.64 µM; Potency [10]: active: 0.355 µM

**Q.** Which Potency [1] does the source give for `Cc1c(CCOc2ccc(C(=O)O)cc2)c2cc(Cl)ccc2n1C(c1ccccc1)c1ccccc1` here?
**A.** The Potency was inconclusive: 37.2 µM [cytotoxic, single point].

**Q.** And the Potency [9]?
**A.** The Potency was “inactive”.

**Q.** What about the Potency [3] of the same compound?
**A.** The Potency was active: 14.8 µM.

**Q.** And the Potency [6]?
**A.** Its Potency is “inactive”.

**Q.** What about the Potency [8] of the same compound?
**A.** The Potency was “inactive”.

**Q.** Which Potency [1] does the source give for `CC(C)C(C)C=CC(C)C1CCC2C3=CC=C4CC(O)CCC4(C)C3CCC21C` (configuration not stated) here?
**A.** The Potency was inconclusive: 33.2 µM [cytotoxic, single point].

**Q.** And the Potency [9]?
**A.** Its Potency is “inactive”.

**Q.** And the Potency [2]?
**A.** The Potency was “inactive”.

**Q.** What about the Potency [3] of the same compound?
**A.** Its Potency is “inactive”.

**Q.** And the Potency [6]?
**A.** Its Potency is “inactive”.

**Q.** What about the Potency [8] of the same compound?
**A.** Its Potency is “inactive”.

**Q.** Which Potency [1] does the source give for `Oc1ccc(C2=Cc3ccc(O)cc3OC2)cc1` here?
**A.** Its Potency is active: 0.366 µM.

**Q.** And the Potency [9]?
**A.** The Potency was active: 11.8 µM.

**Q.** And the Potency [2]?
**A.** Its Potency is active: 9.35 µM.

**Q.** And the Potency [3]?
**A.** Its Potency is active: 2.96 µM.

**Q.** What about the Potency [4] of the same compound?
**A.** Its Potency is active: 2.64 µM.

**Q.** What about the Potency [5] of the same compound?
**A.** Its Potency is active: 2.96 µM.

**Q.** What about the Potency [7] of the same compound?
**A.** The Potency was active: 3.32 µM.

**Q.** And the Potency [8]?
**A.** Its Potency is active: 3.72 µM.

**Q.** What about the Potency [11] of the same compound?
**A.** The Potency was active: 11.2 µM.

**Q.** With `CCCC(CCC)C(=O)O` as the compound, how does the Potency [1] read?
**A.** The Potency was inconclusive: 0.0473 µM [rising, full curve, poor fit].

**Q.** What about the Potency [9] of the same compound?
**A.** Its Potency is inconclusive: 0.001 µM.

**Q.** What about the Potency [2] of the same compound?
**A.** The Potency was inconclusive: 16.6 µM [cytotoxic, partial curve].

**Q.** What about the Potency [3] of the same compound?
**A.** Its Potency is “inactive”.

**Q.** What about the Potency [4] of the same compound?
**A.** The Potency was “inactive”.

**Q.** What about the Potency [8] of the same compound?
**A.** Its Potency is “inactive”.

**Q.** Which Potency [1] does the source give for `NC(=O)NO` here?
**A.** The Potency was inconclusive: 0.0047 µM [rising, full curve, poor fit].

**Q.** And the Potency [12]?
**A.** The Potency was active: 4.69 µM.

**Q.** And the Potency [4]?
**A.** Its Potency is active: 9.35 µM.

**Q.** What about the Potency [8] of the same compound?
**A.** The Potency was active: 4.18 µM.

**Q.** And the activity (max response) [10]?
**A.** The activity (max response) was inactive: 10.6% and inactive: 4%.

**Q.** Which Potency [1] does the source give for `CC1(C)NC(=O)N(c2ccc([N+](=O)[O-])c(C(F)(F)F)c2)C1=O` here?
**A.** The Potency was inconclusive: 23.7 µM [cytotoxic, single point] and inconclusive: 18.6 µM [cytotoxic, partial curve, poor fit].

**Q.** What about the Potency [9] of the same compound?
**A.** The Potency was “inactive”.

**Q.** And the Potency [4]?
**A.** Its Potency is “inactive”.

**Q.** And the activity (max response) [10]?
**A.** The activity (max response) was inactive: -3.44% and inactive: -9.93%.

**Q.** Which Potency [1] does the source give for `Cc1ccc(C(=O)N(CCCN)[C@@H](c2nc3cc(Cl)ccc3c(=O)n2Cc2ccccc2)C(C)C)cc1` here?
**A.** The Potency was active: 0.0037 µM.

**Q.** And the Potency [9]?
**A.** Its Potency is inconclusive: 0.0013 µM [cytotoxic, full curve].

**Q.** And the Potency [2]?
**A.** Its Potency is inconclusive: 0.0013 µM [cytotoxic, full curve].

**Q.** And the Potency [6]?
**A.** The Potency was active: 0.0012 µM.

**Q.** And the Potency [8]?
**A.** The Potency was active: 0.0013 µM.

**Q.** Which Potency [1] does the source give for `CC(C)c1ccc2c(c1)c(SC(C)(C)C)c(CC(C)(C)C(=O)O)n2Cc1ccc(Cl)cc1` here?
**A.** Its Potency is active: 10.5 µM.

**Q.** What about the Potency [12] of the same compound?
**A.** The Potency was “inactive”.

**Q.** And the Potency [6]?
**A.** The Potency was “inactive”.

**Q.** What does the source list for `CCCC1OC2C[C@@H]3[C@H]4CCC5=CC(=O)C=C[C@]5(C)[C@H]4C(O)C[C@]3(C)[C@]2(C(=O)CO)O1` (some centres not stated)?
**A.** Potency [1]: active: 7.42 µM; Potency [9]: inconclusive: 29.6 µM [cytotoxic, single point]; Potency [2]: inconclusive: 33.2 µM [cytotoxic, partial curve, poor fit]; Potency [3]: inconclusive: 0.0264 µM [cytotoxic, full curve]; Potency [5]: inconclusive: 0.0209 µM [cytotoxic, full curve]; Potency [6]: inconclusive: 0.743 µM [cytotoxic, partial curve]

**Q.** For `NC(=O)c1cccc2[nH]c(-c3ccc([C@H]4CCCN4)cc3F)nc12`, which Potency [1] is on record?
**A.** Its Potency is active: 16.6 µM.

**Q.** And the Potency [9]?
**A.** The Potency was active: 18.7 µM.

**Q.** And the Potency [2]?
**A.** The Potency was inconclusive: 26.4 µM [cytotoxic, partial curve, poor fit].

**Q.** And the Potency [3]?
**A.** The Potency was inconclusive: 16.6 µM [cytotoxic, partial curve, poor fit].

**Q.** What about the Potency [4] of the same compound?
**A.** The Potency was inconclusive: 23.5 µM [cytotoxic, single point].

**Q.** What about the Potency [5] of the same compound?
**A.** The Potency was inconclusive: 20.9 µM [cytotoxic, single point].

**Q.** And the Potency [6]?
**A.** The Potency was inconclusive: 5.26 µM [cytotoxic, partial curve].

**Q.** What about the Potency [8] of the same compound?
**A.** The Potency was active: 2.64 µM.

From PubChem BioAssay (NCATS)
